# Some of the results follow. Further columns of the screen follow, without active or inactive calls. Most of these compounds were active or inconclusive in the main read-out, so they are no random draw. Words in brackets tell the shape of the fitted curve; partial curves, single points and poor fits give uncertain potencies.
# Assay: Cell-based coincidence reporter assay to measure PMP22 gene transcription in S16 Pmp22-F2sN cells - Confirmatory screen (AID 1508646)
# Settings: S16 Schwann cells Pmp22-F2sN, dual luciferase, 24 h
# Procedure, shortened: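 S16 rat Schwann cells carrying FLuc-2A-NLuc reporter in Pmp22 3' UTR (500-1,000 cells/well) treated with pinned compounds for 24 h at 37C. Dual-luciferase reads: FLuc luminescence first, then NLuc after Stop&Glo.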
# [1] = measured here: FLuc reporter channel
# [2] = measured here: NLuc reporter channel
# Tags tell the direction and shape of the fitted curve.
SMILES,AC50 [1],AC50 [2]
COC(=O)CS(=O)(=O)c1nc2ccccc2nc1N1CCCCC1,"12.2 µM [falling, partial curve]","7.69 µM [falling, full curve]"
O=C(CSc1c2c(nc3ccc(Cl)cc13)CCCC2)NCc1ccccc1Cl,"21.7 µM [falling, partial curve]","24.3 µM [falling, partial curve, poor fit]"
Cn1c(=O)c2cc(C(=O)NCCCN3CCN(c4ccc(F)cc4)CC3)sc2c2ccccc21,"24.3 µM [falling, partial curve]","27.3 µM [falling, partial curve]"
O=C(CCS(=O)(=O)c1nc(-c2cccs2)cc(C(F)(F)F)n1)Nc1ccc(F)c(Cl)c1,"13.7 µM [falling, full curve]","12.2 µM [falling, full curve]"
Cc1cccc(N(C)S(=O)(=O)c2ccc(-c3cc(C)no3)s2)c1,"9.68 µM [falling, full curve, poor fit]","6.85 µM [falling, full curve, poor fit]"
O=C1CC(c2ccccc2)Cc2[nH]c(=O)c(-c3nc(-c4ccc(F)cc4)cs3)cc21 (centres undefined),"15.3 µM [falling, partial curve]","21.7 µM [falling, partial curve, poor fit]"
CCc1ccccc1Nc1nn2c(=O)c3ccc(C(=O)Nc4cc(C)cc(C)c4)cc3nc2s1,"12.2 µM [falling, partial curve]","10.9 µM [falling, full curve]"
CCOc1ccc(-c2c(C)nn3c(C)c(C(=O)NCC(C)c4ccccc4)cnc23)cc1OCC (centres undefined),"15.3 µM [falling, partial curve, poor fit]","17.2 µM [falling, partial curve, poor fit]"
Cc1ccc(Cl)cc1Nc1nn2c(=O)c3ccc(C(=O)NCc4cccs4)cc3nc2s1,"21.7 µM [falling, partial curve]","21.7 µM [falling, partial curve]"
O=C(CCCCn1c(=O)c2ccccc2n(CC(=O)Nc2ccc(F)cc2F)c1=O)NCc1ccccc1Cl,"15.3 µM [falling, full curve]","21.7 µM [falling, partial curve, poor fit]"
CCc1ccc(CNC(=O)c2nn(-c3ccc(C)cc3)c(=O)c3c2c2ccccc2n3C)cc1,"24.3 µM [falling, partial curve]","21.7 µM [falling, partial curve]"
COc1ccc(-c2cc(C(F)(F)F)n3nc(C)c(-c4ccccc4)c3n2)cc1OC,"15.3 µM [falling, partial curve]","17.2 µM [falling, partial curve, poor fit]"
CC(C)c1ccc(OCC(=O)Nc2cc(-c3nc4ncccc4o3)ccc2Cl)cc1,"21.7 µM [falling, partial curve, poor fit]","24.3 µM [falling, partial curve, poor fit]"
Cc1ccc(C)c(NC(=O)Cn2c(=O)n(Cc3ccco3)c(=O)c3oc4ccccc4c32)c1,"21.7 µM [falling, partial curve]","24.3 µM [falling, partial curve]"
CCCNC(=O)c1cnn2c(C)c(Cc3c(C)cc(C)cc3C)c(C)nc12,"27.3 µM [falling, partial curve]","30.6 µM [falling, partial curve]"
CC(=O)c1ccc(NC(=O)CSC2=Nc3ccccc3N=C(c3ccc(F)cc3)C2)cc1,"17.2 µM [falling, partial curve, poor fit]","13.7 µM [falling, partial curve]"
Cc1nnc(N2CCC(C(=O)N3CCCCC3)CC2)c2nn(-c3ccc(Cl)cc3)c(C)c12,"19.3 µM [falling, partial curve]","21.7 µM [falling, partial curve]"
CCOc1ccc(OCC)c(NC(=O)c2nnn(CC(=O)Nc3cc(Cl)ccc3OC)c2N)c1,"13.7 µM [falling, full curve]","13.7 µM [falling, full curve]"
CCC(=O)C1=C(c2cccc([N+](=O)[O-])c2)N(C(=O)CC)n2c(nnc2C2CCCCC2)S1,"9.68 µM [falling, full curve]","12.2 µM [falling, full curve]"

SMILES,AC50 [1],AC50 [2]
COc1ccc(NC(=O)c2c(NCc3ccc(C)o3)sc3c2CCCCC3)c(OC)c1,"27.3 µM [falling, partial curve]","24.3 µM [falling, partial curve]"
Cc1ccc(OCC(=O)Nc2ccc3[nH]c(=O)sc3c2)cc1,"13.7 µM [falling, full curve, poor fit]","15.3 µM [falling, partial curve, poor fit]"
CCOc1ccc(CN2C(=O)C(=O)c3cccc(C)c32)cc1OC,"13.7 µM [falling, full curve, poor fit]","15.3 µM [falling, partial curve, poor fit]"
COc1ccc(-c2onc(C)c2C)cc1S(=O)(=O)NCC1CCN(Cc2cccc(F)c2)CC1,"19.3 µM [falling, partial curve]","27.3 µM [falling, partial curve]"
COc1ccc(C(C)=O)cc1CSc1nc(Nc2ccc(F)c(F)c2)c2ccccc2n1,"27.3 µM [falling, partial curve]","43.2 µM [falling, single point]"
COCCCn1c(=N)c(C(=O)NC2CCCC2)cc2c(=O)n3cccc(C)c3nc21,"17.2 µM [falling, partial curve]","21.7 µM [falling, partial curve]"
CC1=Nc2cc(C(=O)NCCc3ccc(Cl)cc3)ccc2Sc2c(C)ccc(C)c21,"10.9 µM [falling, partial curve]","5.44 µM [falling, full curve, poor fit]"
Cn1c(=O)oc2cc(S(=O)(=O)N3CCCC(C(=O)N4CCN(c5cccc(Cl)c5)CC4)C3)ccc21 (centres undefined),"17.2 µM [falling, partial curve]","17.2 µM [falling, partial curve]"
CCN1CCOC(=O)C1CC(=O)Nc1cc(Cl)ccc1C (centres undefined),"21.7 µM [falling, partial curve]","24.3 µM [falling, partial curve]"
CCCCCn1c(=N)n(CC(O)COc2cccc(C)c2)c2ccccc21 (centres undefined),"15.3 µM [falling, full curve]","17.2 µM [falling, partial curve]"
COc1ccccc1Nc1c2c(nc3ccc(NC(=O)/C=C/c4cccc(OC)c4OC)cc13)CCCC2,"6.85 µM [falling, full curve]","8.62 µM [falling, full curve]"
COc1ccc(-c2noc(CSc3nnc(-c4ccncc4)n3-c3ccc(C)c(C)c3)n2)cc1,"19.3 µM [falling, partial curve]","15.3 µM [falling, partial curve, poor fit]"
COc1ccc(NC(=O)c2ccc3c(=O)n4nc(Nc5ccccc5C)sc4nc3c2)cc1Cl,"15.3 µM [falling, partial curve]","15.3 µM [falling, partial curve]"
CCOc1ccc(NC(=O)CSc2oc(-c3ccc(F)cc3)nc2S(=O)(=O)c2ccc(C)cc2)cc1,"13.7 µM [falling, full curve]","15.3 µM [falling, full curve]"
COc1ccccc1Nc1nn2c(=O)c3ccc(C(=O)NCCC4=CCCCC4)cc3nc2s1,"6.11 µM [falling, full curve]","5.44 µM [falling, full curve]"
COc1ccc2nc(NC(=O)c3nc(SCc4cccc(C)c4)ncc3Cl)sc2c1,"30.6 µM [falling, partial curve, poor fit]","27.3 µM [falling, partial curve]"
CCCCOc1ccc(CN2C(=O)C(=O)c3cc(C)ccc32)cc1OC,"30.6 µM [falling, partial curve, poor fit]","24.3 µM [falling, partial curve]"
Cc1ccc(NC(=O)Cn2c(=O)n(Cc3ccc4c(c3)OCO4)c(=O)c3ccc(C(=O)NC4CCCCC4)cc32)c(C)c1,"21.7 µM [falling, partial curve]","27.3 µM [falling, partial curve, poor fit]"

# Source: PubChem BioAssay (NCATS)
